What all share (assay): two-hybrid; directed Y2H: pGAD-C1 (AD) and pGBD-C1 (BD) fusions cotransformed into the Y2HGold strain; HIS3 reporter, 8 mM 3-AT added in Figure 4D
Assay [1] deals with T1, Slx5 subunit of the Slx5/8 STUbL, Y2H fusion (S. cerevisiae) (UniProt P32828).
T1 sequence: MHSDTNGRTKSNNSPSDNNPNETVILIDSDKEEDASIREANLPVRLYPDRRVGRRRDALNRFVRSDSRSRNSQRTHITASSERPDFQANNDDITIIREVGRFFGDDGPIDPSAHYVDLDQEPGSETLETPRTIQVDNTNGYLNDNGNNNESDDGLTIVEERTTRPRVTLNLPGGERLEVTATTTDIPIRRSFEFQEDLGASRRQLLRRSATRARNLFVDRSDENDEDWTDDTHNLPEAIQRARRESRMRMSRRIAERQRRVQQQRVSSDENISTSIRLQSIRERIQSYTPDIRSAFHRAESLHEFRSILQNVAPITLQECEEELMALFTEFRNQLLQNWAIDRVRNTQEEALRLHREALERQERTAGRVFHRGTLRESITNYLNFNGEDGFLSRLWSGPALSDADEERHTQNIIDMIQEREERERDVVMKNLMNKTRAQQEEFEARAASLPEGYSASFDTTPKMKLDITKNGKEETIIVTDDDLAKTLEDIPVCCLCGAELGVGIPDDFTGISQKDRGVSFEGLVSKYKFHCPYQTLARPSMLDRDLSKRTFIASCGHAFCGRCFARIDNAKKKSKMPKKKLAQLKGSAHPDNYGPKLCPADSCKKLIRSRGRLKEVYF

The target in assay [2] is T2, Cdc48 substrate-recruiting co-factor Ufd1, Y2H fusion (S. cerevisiae) (UniProt P53044).
T2 sequence: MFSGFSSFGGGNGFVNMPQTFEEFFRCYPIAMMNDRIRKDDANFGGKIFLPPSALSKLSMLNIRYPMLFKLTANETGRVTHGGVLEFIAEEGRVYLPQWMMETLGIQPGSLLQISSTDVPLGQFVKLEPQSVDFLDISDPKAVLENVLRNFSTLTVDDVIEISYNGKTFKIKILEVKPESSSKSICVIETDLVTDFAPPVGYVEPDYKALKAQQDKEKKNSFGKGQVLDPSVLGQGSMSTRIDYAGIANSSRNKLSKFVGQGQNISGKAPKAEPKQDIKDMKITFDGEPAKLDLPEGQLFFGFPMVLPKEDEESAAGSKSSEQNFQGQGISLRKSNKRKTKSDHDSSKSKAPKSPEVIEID

In assay [3] the target is T3, N-terminally truncated, catalytically inactive Ulp2 (Ulp2CD-N400), Y2H fusion (S. cerevisiae) (UniProt P40537).
T3 sequence: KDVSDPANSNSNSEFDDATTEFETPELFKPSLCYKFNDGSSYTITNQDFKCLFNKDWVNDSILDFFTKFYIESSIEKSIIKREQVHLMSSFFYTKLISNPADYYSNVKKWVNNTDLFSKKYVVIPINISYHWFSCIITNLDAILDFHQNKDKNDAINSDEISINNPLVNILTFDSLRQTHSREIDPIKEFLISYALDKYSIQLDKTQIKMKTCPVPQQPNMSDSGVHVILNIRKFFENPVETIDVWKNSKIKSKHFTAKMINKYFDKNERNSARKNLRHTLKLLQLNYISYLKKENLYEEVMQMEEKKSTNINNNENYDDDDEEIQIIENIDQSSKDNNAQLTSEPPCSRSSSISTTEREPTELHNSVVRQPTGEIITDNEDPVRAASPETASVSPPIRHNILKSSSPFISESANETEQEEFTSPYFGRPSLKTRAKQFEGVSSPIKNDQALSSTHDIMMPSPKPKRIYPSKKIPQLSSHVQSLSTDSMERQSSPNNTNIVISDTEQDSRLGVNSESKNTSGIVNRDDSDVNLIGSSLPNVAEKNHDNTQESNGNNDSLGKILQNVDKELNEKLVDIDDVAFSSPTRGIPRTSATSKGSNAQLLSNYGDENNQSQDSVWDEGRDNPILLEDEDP

Assay [4] has as its target T4, catalytically dead Ulp2 (Ulp2-C624S), AD-fusion and BD-fusion for Y2H (S. cerevisiae) (UniProt P40537).
T4 sequence: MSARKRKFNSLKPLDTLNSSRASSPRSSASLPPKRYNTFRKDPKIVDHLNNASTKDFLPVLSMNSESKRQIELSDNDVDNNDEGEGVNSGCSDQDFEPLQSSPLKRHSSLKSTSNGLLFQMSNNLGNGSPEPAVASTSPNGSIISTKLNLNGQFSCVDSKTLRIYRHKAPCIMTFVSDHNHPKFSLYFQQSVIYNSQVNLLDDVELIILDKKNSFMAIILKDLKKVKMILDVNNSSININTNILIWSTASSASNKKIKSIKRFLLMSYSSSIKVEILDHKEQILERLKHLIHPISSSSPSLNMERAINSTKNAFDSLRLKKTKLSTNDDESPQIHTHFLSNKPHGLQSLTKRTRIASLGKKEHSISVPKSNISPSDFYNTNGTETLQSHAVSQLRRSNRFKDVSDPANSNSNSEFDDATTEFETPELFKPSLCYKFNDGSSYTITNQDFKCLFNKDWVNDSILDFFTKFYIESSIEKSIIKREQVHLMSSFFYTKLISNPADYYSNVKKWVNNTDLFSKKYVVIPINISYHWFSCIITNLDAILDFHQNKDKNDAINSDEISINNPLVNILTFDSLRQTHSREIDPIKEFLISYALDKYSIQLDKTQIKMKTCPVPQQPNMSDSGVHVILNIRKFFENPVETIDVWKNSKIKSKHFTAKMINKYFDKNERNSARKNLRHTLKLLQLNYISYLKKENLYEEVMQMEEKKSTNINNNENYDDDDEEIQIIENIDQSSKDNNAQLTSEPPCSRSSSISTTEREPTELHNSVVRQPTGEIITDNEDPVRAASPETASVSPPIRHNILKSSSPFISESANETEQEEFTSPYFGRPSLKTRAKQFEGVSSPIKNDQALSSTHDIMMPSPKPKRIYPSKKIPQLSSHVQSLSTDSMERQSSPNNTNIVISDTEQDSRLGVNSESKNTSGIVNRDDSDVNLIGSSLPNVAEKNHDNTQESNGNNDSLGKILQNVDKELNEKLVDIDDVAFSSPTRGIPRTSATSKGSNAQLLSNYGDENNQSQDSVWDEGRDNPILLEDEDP

Data on one molecule can be found in article PMC6891891.

No constants are given. Whether binding was seen depends on the method and setting. Some results given as binding are weak or reduced against the parent protein; the word gives no strength. Where a sequence is shown, tags or fusion partners need not be part of it.

B1: Dbf4, AD-fusion and BD-fusion for Y2H (protein, UniProt P32325 1-704)
chain: MVSPTKMIIRSPLKETDTNLKHNNGIAASTTAAGHLNVFSNDNNCNNNNTTESFPKKRSLERLELQQQQHLHEKKRARIERARSIEGAVQVSKGTGLKNVEPRVTPKELLEWQTNWKKIMKRDSRIYFDITDDVEMNTYNKSKMDKRRDLLKRGFLTLGAQITQFFDTTVTIVITRRSVENIYLLKDTDILSRAKKNYMKVWSYEKAARFLKNLDVDLDHLSKTKSASLAAPTLSNLLHNEKLYGPTDRDPRTKRDDIHYFKYPHVYLYDLWQTWAPIITLEWKPQELTNLDELPYPILKIGSFGRCPFIGDRNYDESSYKRVVKRYSRDKANKKYALQLRALFQYHADTLLNTSSVNDQTKNLIFIPHTCNDSTKSFKKWMQEKAKNFEKTELKKTDDSAVQDVRNEHADQTDEKNSILLNETETKEPPLKEEKENKQSIAEESNKYPQRKELAATPKLNHPVLATFARQETEEVPDDLCTLKTKSRQAFEIKASGAHQSNDVATSFGNGLGPTRASVMSKNMKSLSRLMVDRKLGVKQTNGNNKNYTATIATTAETSKENRHRLDFNALKKDEAPSKETGKDSAVHLETNRKPQNFPKVATKSVSADSKVHNDIKITTTESPTASKKSTSTNVTLHFNAQTAQTAQPVKKETVKNSGYCENCRVKYESLEQHIVSEKHLSFAENDLNFEAIDSLIENLRFQI
Consider B1, for which the binding result in assay [1] is given as “binds”; in assay [2], “binds”; in assay [3] it was “no binding”; in assay [4] it was “binds”.
